# Laboratory results taken from ChEMBL document CHEMBL4888484, “Replenishing the malaria drug discovery pipeline: Screening and hit evaluation of the MMV Hit Generation Library 1 (HGL1) against asexual blood stage Plasmodium falciparum ,using a nano luciferase reporter read-out” (2022).
# In all, about 150,000 compounds went through this assay and about 540 (0.36%) showed an effect of 50% or more. The list shows a part of the results.
# Tested on: Plasmodium falciparum
# Experiment: Primary screen in NF54 nanoGlo assay, in single point, at 2uM, 72h; a lower Z score goes with more inhibition
# Assay type: functional, Erythrocyte
# Conditions: timepoint 72 hour
Compound,% Inhibition,Z score
C[C@@H](c1ccccc1)c1ncccc1C#N,-3%,0.34
CN(C)C[C@H](O)Cn1cc(NC(=O)C(c2ccccc2)c2ccccc2)cn1,-5%,0.7
O=C(NC[C@H]1CCCO1)Nc1cccc2c1CCCC2,3%,-0.55
COC(=O)C1CC(OC)CN1C(=O)Cc1cccc(C)c1 (stereo not given),-15%,2.91
Cc1nc2ccc(-n3ncnc3CCO)cc2s1,-5%,0.96
O=C(NC1CCCC1CCO)c1ccncc1F (stereo not given),-8%,1.08
CC1CCC(Oc2cc(CNc3nccnc3C#N)ccn2)CC1 (stereo not given),-10%,1.58
Cc1cc(CN2CCC(CCC(=O)NC3CC3)CC2)[nH]n1,2%,-0.31
CC(=O)N[C@@H](CC(=O)N1CCc2nnc(N)cc2C1)c1ccccc1,-10%,1.54
Cc1cc(C)n(CCC(=O)NCc2nc3c(s2)CCCC3)c(=O)n1,8%,-1.38
COc1cc(NC(=O)N2CC(O)(C(F)(F)F)C2)ccn1,3%,-0.45
CC[C@H]1CCCCN1Cc1nc(C)cc(O)n1,-10%,1.91
Cc1ccc(F)c(NS(=O)(=O)c2c(C)[nH]c(C)c2-c2nnc(C3CCC3)o2)c1,-3%,0.65
Cc1ccc(Cl)cc1N1CC[C@@H](C(=O)Nc2ccc(C(F)(F)F)cc2)C1=O,-13%,1.99
CC(C)OCCCNC(=O)c1ccc2c(c1)nc1n2CC[C@H](C)C1,-4%,0.63
CCOc1c(CN2CCC3(C2)OCCO3)c(C)nn1CC(C)C,-1%,0.08
CCC=C(CCC)C(=O)N(C)CCCn1ccnc1,-11%,1.09
O=C(CCC(=O)NCCc1ccccc1)NCCc1ccccc1,-6%,0.81
CN(C)c1ccc(CNC(=O)C2CCN(c3nc4ccc(Cl)cc4[nH]3)CC2)cc1,0%,0.05
O=C(c1ccccc1Nc1ccc(F)cc1)N1CCN(S(=O)(=O)c2ccc(F)c(F)c2)CC1,-10%,1.52
COc1cccn(CC(=O)N(C)C[C@]2(c3ccccc3)CC2(C)C)c1=O,7%,-1
O=C(NC1CCCCC1)NC1(CO)CCCC1,3%,-0.37
CCCN1CCCN(Cc2nc(N)nc(N(C)C)n2)CC1,0%,-0.01
CC(=O)N1C[C@@H]2CCN(S(=O)(=O)c3cccc(F)c3)C[C@]2(CO)C1,-12%,1.96
COCC1(S(=O)(=O)Nc2cccc([C@@H](O)C(F)(F)F)c2)CC1,2%,-0.34
Cc1ccc(-c2nonc2NC(=O)Cc2cccc3ccccc23)cc1C,-8%,1.1
CC(C)n1nccc1C(=O)NCc1nnc2ccc(Cl)cn12,-7%,1.08
O=C(CNC(=O)OCc1ccccc1)NCc1ccnc(N2CCCC2=O)c1,-7%,1.25

Compound,% Inhibition,Z score
COC(=O)c1cc(NC(=O)[C@H]2CCOC2)c2oc(Cc3ccccc3)nc2c1,2%,-0.3
COc1ccc2c(c1)C[C@H](NC(=O)Nc1cc(Cl)ccc1C)CO2,-2%,0.3
COCC(C)(C)NC(=O)[C@@H]1CCC(=O)N1C,7%,-1.02
Cc1nc(N(C)Cc2n[nH]c3c2CCCCC3)cc([C@H]2C[C@@H](O)C2)n1,-3%,0.55
CN(C)C(=O)c1ccc(CNC(=O)c2ncc(F)cc2F)o1,-8%,1.01
CCN(CCC(=O)NCCC(C)C)C(=O)c1cnc(C)cn1,-4%,0.56
C[C@@H](C(=O)N1CCC(c2nc3c(s2)CCC3)CC1)c1cnn(C)c1,-22%,2.79
COc1ccc(CNC(=O)[C@H]2CCc3sc(C(=O)N(C)C)cc3C2)cc1,33%,-3.79
Cc1cc(NC(=O)c2ccc(Cl)c(Cl)c2)nn1-c1ccc(C#N)cc1,3%,-0.44
CCn1c(COc2ccc3c(c2)CCNC3=O)nc2c(F)cccc21,5%,-0.7
CC(C)CS(=O)(=O)CCNC(=O)[C@@H]1Cc2ccccc2CN1C,4%,-0.69
C#CCNC(=O)NCc1cc(CC)n[nH]1,3%,-0.45
CCOc1ccc(CN2C[C@H]3CN(C4CCCC4)C[C@@]3(C(=O)O)C2)cn1,-7%,1.29
CN1C[C@@H]2CC[C@H](CC1=O)N2Cc1cc2cc3c(cc2[nH]c1=O)CCC3,-15%,2.77
CCO[C@H]1COCC[C@@H]1NS(=O)(=O)CCc1cccc2ccccc12,15%,-1.94
Cc1ccc(S(=O)(=O)NCc2cncc(-c3ccco3)c2)cc1C,8%,-1.09
Cc1cc([C@H](C)NC(=O)NC2CCOCC2)c(C)s1,-5%,0.83
Cc1nccc(C(=O)N2CC[C@]34C(=O)N(Cc5cn(nn5)CCCOc5cccc(c5)[C@H]23)c2ccccc24)n1,6%,-0.76
CC(C)(C)C(=O)Nc1cccc(NC(=O)C(C)(C)C)n1,-18%,2.48
O=C1c2ccccc2C(=O)N1CCC(=O)n1cnc2ccccc21,33%,-3.73
N#Cc1nc(CCC2CCCCC2)oc1NCc1ccccc1,-6%,0.7
Cc1onc(NC(=O)N2C[C@@H]3OC(=O)N(C4CCN(C(C)C)CC4)[C@@H]3C2)c1C,-6%,1.07
CCc1nncn1CCNC(=O)c1c(F)c(F)cc(F)c1F,-3%,0.63
Cc1cccc(C)c1NCC(=O)NC[C@H](O)c1ccc(F)cc1,6%,-1.11
C[C@]1(c2cccc3ccccc23)NC(=O)NC1=O,0%,-0.02
Cc1cc(C)c2c(-n3c(C)ccc3C)nn(CC(=O)NCc3ccc4c(c3)OCO4)c2n1,-14%,1.37
CC(C)[C@H](CO)CNc1ccc2cc(Cl)ccc2n1,-1%,0.09
